T1: UNK ZnF1-3 (human, UniProt Q9C0B0 31-174)
T1 sequence: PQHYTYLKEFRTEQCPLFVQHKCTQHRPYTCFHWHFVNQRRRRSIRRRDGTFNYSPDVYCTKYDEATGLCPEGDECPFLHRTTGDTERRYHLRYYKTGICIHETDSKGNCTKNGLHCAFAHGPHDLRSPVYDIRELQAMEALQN

B1: chr6:41757443:41757444:+_ENSG00000214736_ENST00000398881|hu_mus|hu_hu_hu_mus_False|28_108 (ssRNA)
RNA: GGGAGUUCUACAGUCCGACGAUCGAACUGUCUGCUGGCAACAUCUCAGCCGACACUGGGGGAUGGGGGGGCAGUGGGGGGGGGUUCAGGCAAGGAGAGGGAGUCAACCCAUCUGAACACUCAGGUAGGAUCUUGUGGUCACAGCAACAGAGGAUUGAGCAUCA
B2: 235950199_235950319_1250_CDS_ENSG00000130147_ENST00000392011|human|control|control (ssRNA)
RNA: GGGAGUUCUACAGUCCGACGAUCCAAGUCCAGGUCGUGGCAAGACCGGGCCAGCUUCCUGUGGUUUAGCCAGGCAGUUCGAAAAUCCUCCCGGCUCUGAAAUUGCUCGGGGGCAGGUGAUUUCAAGCCGGUGAAGAAACUCGACAACAGAGGAUUGAGCAUCA
B3: chr1:151007788:151007789:+_ENSG00000143363_ENST00000271620|hu_hu|motif|central (ssRNA)
RNA: GGGAGUUCUACAGUCCGACGAUCUGGGUCAACACGCCAUGAACCACACCCCUAUUCGUGCUACAUGAGGCUGAGUCCUUGCGGCAACCACACAGAAAUACAGACAAUCAAGUGAACCUGAGCACCCCCAGGGAUAACAGAAGACAACAGAGGAUUGAGCAUCA
B4: chr10:84155644:84155645:+_ENSMUSG00000034453_ENSMUST00000077175|mus_hu|FALSE|FALSE (ssRNA)
RNA: GGGAGUUCUACAGUCCGACGAUCACUAUAGCUCAUCACAGCAACUGUUGCAUUCUGUCCAGCUGGCAGUUUCUCAAAUUCUAUCAAUUCAAUGGUUUUUGUCUUAACCAUGGGUUUUUGUGGAUAUGCUAGUAGAUACAUGAGCAACAGAGGAUUGAGCAUCA
B5: chr8:48874918:48874919:+_ENSG00000104738_ENST00000523944|hu_hu|FALSE|FALSE (ssRNA)
RNA: GGGAGUUCUACAGUCCGACGAUCAUUUACAUCUGUUCCCCAGAUCACAAGUUUUUGGCCUAGAGACUGCUCACUUGCCACUAUAUCUUCUGCUGCUGCCCCGUCAGACUGCAGAUCCACUUGCAGGCCCUUCUGUGCAGAGCCCAACAGAGGAUUGAGCAUCA
B6: chr2:198351390:198351391:-_ENSG00000144381_ENST00000345042|hu_hu|hu_hu_hu_mus_False|1_88 (ssRNA)
RNA: GGGAGUUCUACAGUCCGACGAUCUCAUUCCCACCCUCCACAGAAAGGCUGCUUAACAACUCUCAUGUGGUGACACAGCGCUACAGUCCUGAUGCUCACAGAACAGUAGAGAUGCCUCAGUGAUUUAAGUUGAAAGCAGCAGUACAACAGAGGAUUGAGCAUCA
B7: 21183937_21186944_3650_CDS_ENSG00000075151_ENST00000400422|human|control|control (ssRNA)
RNA: GGGAGUUCUACAGUCCGACGAUCGUUCUUGGCCCCUUGUACAGUGUUCCACCCACCUUCGUCCACUCUCUGGACACCUGGUCUUCUCUUCUCUUUGGUCAUGAGUUGCUGGACCUUCCUUUGCUCUUCUUGUUCUUCUAUUUUCAACAGAGGAUUGAGCAUCA
B8: chr10:44834900:44834901:+_ENSMUSG00000019849_ENSMUST00000099858|mus_mus|motif|central (ssRNA)
RNA: GGGAGUUCUACAGUCCGACGAUCGAAUGUGAACACUGUGCCCUCGUUGGUUACGUAGUCGUAUUCUCCUUCAAAGUUGUCGGUCAGUUUUACCCACUUCAGGAUUCCGGUGAUACCAUUGGGUUCUUGCUGGAGGUCACAGUACAACAGAGGAUUGAGCAUCA
B9: chr10:33190432:33190433:-_ENSG00000150093_ENST00000302278|hu_mus|hu_hu_hu_mus_True|18_88 (ssRNA)
RNA: GGGAGUUCUACAGUCCGACGAUCUACAUUUUCCAAACCUGCAUGUGAGUAAAACCAUGGCCACAGAGCCCCAAAACUACCCUACUGUGACUAAGAUGCUGCUGCUGUGAGCUUGGUUGUUGUGGGACCGCCUGAGUAGGAUUCCAACAGAGGAUUGAGCAUCA
B10: chr9:72849539:72849540:+_ENSMUSG00000034563_ENSMUST00000085350|mus_mus|FALSE|FALSE (ssRNA)
RNA: GGGAGUUCUACAGUCCGACGAUCGUUCCCCAUUUCUUCCAGCUUAGGUGGUUCAAGUGUAACAAUAUCCGAAUCGUCACUAGUAGUUCCGAAAUAGACAUUGUCUUCAGGGGAAGGUGCUUCCUCCACCUCAGCUGCUGACUUCAACAGAGGAUUGAGCAUCA
B11: chr8:86465610:86465611:+_ENSMUSG00000013033_ENSMUST00000141158|mus_mus|FALSE|FALSE (ssRNA)
RNA: GGGAGUUCUACAGUCCGACGAUCUUGAGAAUGAGAGGAACACAGAGACAGCAAAAAAGGACACAACGGAAAGUUGAAUAGCUAGGAAAACUCAAAAGAAAAAGACCUAGAGAAAAAGAAUGAGCAAGAUUCAGGAGCAAAUGACAACAGAGGAUUGAGCAUCA
B12: chr7:141356670:141356671:-_ENSG00000257093_ENST00000536163|hu_mus|FALSE|FALSE (ssRNA)
RNA: GGGAGUUCUACAGUCCGACGAUCUAUAUACAGAUAUGAUAUACACAGGUGUUAACUUGUACCACAGAAAGAAUCAAUUCAAGAAACAUUUACACUUAGCCUUGGGGUUAAGCCCACCUUCCUUCAGGUCUGUAAAUAAUACUCCAACAGAGGAUUGAGCAUCA
B13: chr12:39763582:39763583:-_ENSG00000139116_ENST00000544797|hu_mus|hu_hu_hu_mus_False|48_78 (ssRNA)
RNA: GGGAGUUCUACAGUCCGACGAUCCUCUAGGAACUGGGCAUUCACUUUGAAUUCAGGAGCAGGAAGCCCGUUUUUAAUCGCUGAGGUUUUUUUUUCUUCAAUACUCUUGAACAGGUGUCUAACAGCACGAGAGAUGAUGCCCUGCAACAGAGGAUUGAGCAUCA
B14: chr12:39756943:39756944:-_ENSG00000139116_ENST00000544797|hu_mus|hu_hu_hu_mus_False|58_78 (ssRNA)
RNA: GGGAGUUCUACAGUCCGACGAUCGGUUUGGCUGUUACCCCCAAGGGAAUCCUGCAAUAGUCUUGUUAGCUUAGAGUCUCUAUAGGGGACAUGGGUGGCUCUCUUGCUCUUGUCCCCCAAGGCGCUGAUUACAUUCCCAAGAGCCAACAGAGGAUUGAGCAUCA

This is one part of the list.

The target of this experiment is T1, UNK ZnF1-3. As to the kind of experiment: nsRBNS (natural sequence RNA bind-n-seq); RBNS binding buffer (assumed for nsRBNS): 25 mM Tris pH 7.5, 150 mM KCl, 3 mM MgCl2, 0.01% Triton X-100, 500 ug/ml BSA, 20 U/ml SUPERase-In, 4 C; UNK is unkempt and MSI1 is Musashi-1; names of the RNAs are library labels; protein concentration not given here; high values mean tight binding.
For B1, the binding signal turned out to be 2.16 enrichment R.
Under B2 stands 0.823 enrichment R.
Under B3 stands 1.79 enrichment R.
Then B4, with 1.05 enrichment R; and B5, with 0.735 enrichment R; and B6, with 0.953 enrichment R.
Take B7: the binding signal stood at 0.315 enrichment R.
Under B8 stands 0.567 enrichment R; under B9, 1.03 enrichment R.
Under B10 stands 0.538 enrichment R.
As to B11, the binding signal was found to be 2.62 enrichment R.
Under B12 stands 1.31 enrichment R; under B13, 1.3 enrichment R; under B14, 0.715 enrichment R.
